Data taken from PubChem BioAssay (NCATS).
The shares of active, inactive and inconclusive entries below differ from those in the screen. Potencies of inconclusive entries are doubtful fits and often do not repeat. The source made the active and inactive calls. Unless noted, calls follow the shape of the dose curve; as a rule, active = well fitted curve in the direction sought with a large enough effect; inconclusive = small, poorly fitted or top-dose-only effect, or another doubt; inactive = no such curve, though single readings can be large; an effect the other way counts as inactive or inconclusive.

Columns and labels:
[1] = P-glycoprotein substrates identified in KB-8-5-11 adenocarcinoma cell line, qHTS therapeutic library screen (AID 1346987); also: nearly all actives have a fitted effect of over 65% in size
Summary of the method: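 Compounds are pinned in dose-response onto KB-8-5-11 cells (500 cells/well, colchicine-free medium) and left 72 h at 37 degree C. CellTiter-Glo luminescence then yields AC50 values.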

[2] = test system: Zika virus NS2B-NS3 protease (unlinked complex); experiment: Primary screen GU Rhodamine qHTS for Zika virus inhibitors: Unlinked NS2B-NS3 protease assay (AID 1347159); also: nearly all actives have a fitted effect of over 60% in size
Summary of the method: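 In dose–response format, inhibition of unlinked protease (25 nM) was measured with 1.5 microM bis-peptide Rhodamine110 substrate. Aprotinin served as the intraplate control.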

HEK293 = experiment: Cytotoxic Profiling of Annotated Libraries Using Quantitative High-Throughput Screening (AID 1296008); settings: Five cell lines viability, CellTiter-Glo ATP luminescence, 48-72 h; max response: hits give low values; also: nearly all actives have a fitted effect of over 60% in size; as to max response: % is scaled to controls: 0 for no effect and ±100 for the full control effect
Summary of the method: (§1)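 Cells exposed to compounds for 48 or 72 hr at 37 degrees Celsius. Viability read as ATP-coupled luminescence with CellTiter-Glo after 10 min at room temperature.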

KB-3-1 = experiment: as above; settings: Five cell lines viability, CellTiter-Glo ATP luminescence, 48-72 h; max response: hits give low values
Summary of the method: as §1

NIH3T3 = experiment: as above; settings: Five cell lines viability, CellTiter-Glo ATP luminescence, 48-72 h; max response: hits give low values
Summary of the method: as §1

CASKI = experiment: Primary qHTS to identify gynecologic anti-cancer compounds using libraries of approved drugs and bioactive compounds (AID 1345084); settings: Gynecologic cancer cell panel viability, ATPlite luminescence, 48 h; activity change, negative = cytotoxicity: at 57.5 µM (top of the series); also: nearly all actives have a fitted effect of over 55% in size; as to activity change, negative = cytotoxicity: % is scaled to controls: 0 for no effect and ±100 for the full control effect
Summary of the method: (§2)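 ATP-based viability (ATPlite), 1,000 cells/well, 16 h pre-incubation, 48 h compound at 37 C, 5% CO2, 15 min RT before read.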

Es-2 = experiment: as above; settings: Gynecologic cancer cell panel viability, ATPlite luminescence, 48 h; series mostly up to 57.5 µM
Summary of the method: as §2

HeLa = experiment: as above; settings: Gynecologic cancer cell panel viability, ATPlite luminescence, 48 h; series mostly up to 57.5 µM
Summary of the method: as §2

Hek293T = experiment: as above; settings: Gynecologic cancer cell panel viability, ATPlite luminescence, 48 h, control line for the selectivity index; series mostly up to 57.5 µM
Summary of the method: as §2

JEG-3 = experiment: as above; settings: Gynecologic cancer cell panel viability, ATPlite luminescence, 48 h; series mostly up to 57.5 µM
Summary of the method: as §2

PA-1 = experiment: as above; settings: Gynecologic cancer cell panel viability, ATPlite luminescence, 48 h; series mostly up to 57.5 µM
Summary of the method: as §2

SKOV3 = experiment: as above; settings: Gynecologic cancer cell panel viability, ATPlite luminescence, 48 h; series mostly up to 57.5 µM
Summary of the method: as §2

Tov-21-G = experiment: as above; settings: Gynecologic cancer cell panel viability, ATPlite luminescence, 48 h; activity change, negative = cytotoxicity: at 57.5 µM (top of the series)
Summary of the method: as §2

Tov112D = experiment: as above; settings: Gynecologic cancer cell panel viability, ATPlite luminescence, 48 h; activity change, negative = cytotoxicity: at 57.5 µM (top of the series)
Summary of the method: as §2

[3] = target: Cytochrome P450 2D6 (Homo sapiens) (UniProt P10635); experiment: Cytochrome P450 family 2 subfamily D member 6 (CYP2D6) small molecule antagonists: luciferase biochemical (cell-free) qHTS assay (AID 1645840; active = well fitted curve in the direction sought with a large enough effect in the repeat runs; inconclusive = weak or mixed curves; inactive = no such curve, though single readings can be large; an effect the other way counts as inactive or inconclusive; also: nearly all actives have a fitted effect of over 55% in size)
Summary of the method: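 P450-Glo CYP2D6 system: proluciferin substrate converted by enzyme to luciferin, read by luminescence proportional to activity. Enzyme-substrate mix with compound 10 min at room temperature, then NADPH regeneration 1 h before detection reagent.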

[4] = Primary qHTS for inhibitors of nuclear receptor binding SET domain protein 2 (NSD2) in an isogenic RCH-ACV NSD2 p.E1099K mutant (9B) (AID 1645876); also: nearly all actives have a fitted effect of over 70% in size
C33A = experiment: Primary qHTS to identify gynecologic anti-cancer compounds using libraries of approved drugs and bioactive compounds (AID 1345084); settings: Gynecologic cancer cell panel viability, ATPlite luminescence, 48 h; series mostly up to 57.5 µM; also: nearly all actives have a fitted effect of over 55% in size; as to activity change, negative = cytotoxicity: % is scaled to controls: 0 for no effect and ±100 for the full control effect
Summary of the method: as §2

OV90 = experiment: as above; settings: Gynecologic cancer cell panel viability, ATPlite luminescence, 48 h; series mostly up to 57.5 µM
Summary of the method: as §2

[5] = Primary qHTS for inhibitors of nuclear receptor binding SET domain protein 2 (NSD2) in an RCH-ACV wild type WT cells (2C) (AID 1645877); settings: activity change, negative = cell killing: at 44.9 µM (top of the series); also: nearly all actives have a fitted effect of over 70% in size
CAOV3 = experiment: Primary qHTS to identify gynecologic anti-cancer compounds using libraries of approved drugs and bioactive compounds (AID 1345084); settings: Gynecologic cancer cell panel viability, ATPlite luminescence, 48 h; series mostly up to 57.5 µM; also: nearly all actives have a fitted effect of over 55% in size; as to activity change, negative = cytotoxicity: % is scaled to controls: 0 for no effect and ±100 for the full control effect
Summary of the method: as §2
Potency is read from the fitted curve at half-maximal effect; tags tell the direction and shape of the fitted curve.

Sequence of UniProt P10635 (P10635 whole entry, looked up): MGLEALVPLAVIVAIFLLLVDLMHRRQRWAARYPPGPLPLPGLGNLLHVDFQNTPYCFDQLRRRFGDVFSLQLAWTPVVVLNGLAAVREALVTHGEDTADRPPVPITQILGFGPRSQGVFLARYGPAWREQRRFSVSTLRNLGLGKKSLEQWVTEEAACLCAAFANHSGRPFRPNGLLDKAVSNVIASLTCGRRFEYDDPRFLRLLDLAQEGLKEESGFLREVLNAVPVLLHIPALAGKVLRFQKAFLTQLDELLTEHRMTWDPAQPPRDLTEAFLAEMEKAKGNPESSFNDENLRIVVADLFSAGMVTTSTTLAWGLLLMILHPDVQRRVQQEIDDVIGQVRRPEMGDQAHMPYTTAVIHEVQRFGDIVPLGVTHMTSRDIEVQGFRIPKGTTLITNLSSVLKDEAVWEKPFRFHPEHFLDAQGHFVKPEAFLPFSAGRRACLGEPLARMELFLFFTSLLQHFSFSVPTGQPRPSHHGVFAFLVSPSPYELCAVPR

COC1=CC(=O)C[C@@H](C)[C@@]12Oc1c(Cl)c(OC)cc(OC)c1C2=O
Potency [1]: inconclusive: 11.4 µM [inhibitor, single point]
Potency [2]: inactive
max response (HEK293): inactive: -102%
Potency (KB-3-1): inconclusive: 20.2 µM [inhibitor, single point]
max response (NIH3T3): inactive: -50.9%
Potency (CASKI): inconclusive: 31.6 µM
Potency (Es-2): inactive
Potency (HeLa): inconclusive: 316 µM
Potency (Hek293T): inconclusive: 0.447 µM
Potency (JEG-3): inconclusive: 25.1 µM
Potency (PA-1): inconclusive: 316 µM
Potency (SKOV3): inconclusive: 0.178 µM [cytotoxic, full curve, poor fit]
Potency (Tov-21-G): inconclusive: 0.0316 µM
Potency (Tov112D): active: 0.1 µM

Cn1c(=O)c2c(ncn2Cc2ccc(C(C)(C)C)cc2)n(C)c1=O
Potency [1]: inconclusive: 9.2 µM [inhibitor, partial curve]
Potency [2]: inactive
Potency [3]: inconclusive: 37.9 µM [inhibitor, single point]
Potency [4]: active: 6.49 µM
Potency (HEK293): active: 1.64 µM
Potency (KB-3-1): inconclusive: 1.46 µM [inhibitor, full curve]
Potency (NIH3T3): inconclusive: 13 µM [inhibitor, partial curve]
Potency (C33A): inconclusive: 8.91 µM [cytotoxic, partial curve, poor fit]
Potency (CASKI): inconclusive: 11.2 µM [cytotoxic, partial curve, poor fit]
Potency (Es-2): inconclusive: 12.6 µM [cytotoxic, partial curve]
Potency (HeLa): inconclusive: 39.8 µM [cytotoxic, single point]
Potency (Hek293T): inconclusive: 10 µM [cytotoxic, partial curve, poor fit]
Potency (JEG-3): active: 14.1 µM
Potency (OV90): active: 10 µM
Potency (SKOV3): inconclusive: 7.94 µM [cytotoxic, full curve, poor fit]
Potency (Tov-21-G): inconclusive: 14.1 µM [cytotoxic, partial curve]
Potency (Tov112D): inconclusive: 10 µM [cytotoxic, partial curve]

CC(C)n1c(=O)c(C(=O)NC2CC3CCC(C2)N3C[C@@H](O)CN(C)S(C)(=O)=O)cc2ccccc21 (some centres undefined)
Potency [2]: inactive
Potency [4]: inactive
Potency [5]: inconclusive: 14.5 µM [inhibitor, partial curve, poor fit]
Potency (HEK293): inconclusive: 18.4 µM [inhibitor, partial curve, poor fit]
max response (KB-3-1): inactive: -11.4%
max response (NIH3T3): inactive: -22.5%
Potency (PA-1): inactive
Potency (SKOV3): inconclusive: 0.158 µM [rising, full curve, poor fit]

O=C(CCl)Nc1cccc(NC2=NS(=O)(=O)c3ccccc32)c1
Potency (HEK293): inconclusive: 25.9 µM [inhibitor, single point]
Potency (KB-3-1): active: 14.6 µM
Potency (NIH3T3): inconclusive: 29.1 µM [inhibitor, single point]
Potency (C33A): inconclusive: 28.2 µM [cytotoxic, single point]
Potency (CAOV3): inconclusive: 39.8 µM [cytotoxic, single point]
Potency (CASKI): inconclusive: 22.4 µM [cytotoxic, single point]
Potency (HeLa): inconclusive: 25.1 µM [cytotoxic, partial curve]
Potency (Hek293T): inconclusive: 39.8 µM [cytotoxic, single point]
Potency (PA-1): inconclusive: 35.5 µM [cytotoxic, single point]
Potency (SKOV3): inconclusive: 1.26 µM [rising, full curve, poor fit]
Potency (Tov112D): inconclusive: 14.1 µM [cytotoxic, partial curve]

CC(C)(C)c1ccc(CNC(=S)NCc2ccc(NS(C)(=O)=O)c(F)c2)cc1
Potency [1]: inconclusive: 20.6 µM [inhibitor, partial curve, poor fit]
Potency [2]: inconclusive: 50.1 µM [inhibitor, partial curve, poor fit]
Potency (HEK293): inconclusive: 7.31 µM [inhibitor, partial curve, poor fit]
Potency (KB-3-1): inconclusive: 9.2 µM [inhibitor, partial curve]
Potency (NIH3T3): inconclusive: 25.9 µM [inhibitor, single point]
Potency (CAOV3): inconclusive: 14.1 µM [cytotoxic, partial curve, poor fit]
Potency (JEG-3): inconclusive: 25.1 µM [cytotoxic, single point]
Potency (SKOV3): inconclusive: 35.5 µM [cytotoxic, single point]
Potency (Tov-21-G): inactive

CN(C)C(=O)Nc1cc(-c2ccccc2)ccc1N(C)C
Potency [1]: inconclusive: 11.6 µM [inhibitor, partial curve]
Potency [4]: inconclusive: 18.3 µM [inhibitor, partial curve, poor fit]
Potency (HEK293): inconclusive: 25.9 µM [inhibitor, single point]
max response (KB-3-1): inactive: -8.42%
Potency (NIH3T3): inconclusive: 0.0206 µM [inhibitor, full curve, poor fit]
Potency (SKOV3): inactive

COc1cccc(CNC(=O)Nc2nc(-c3ccncc3)cs2)c1
Potency [2]: inconclusive: 50.1 µM [inhibitor, partial curve]
Potency (HEK293): inconclusive: 25.9 µM [inhibitor, single point]
Potency (KB-3-1): inconclusive: 23.1 µM [inhibitor, single point]
Potency (NIH3T3): inconclusive: 7.31 µM [inhibitor, partial curve]
Potency (HeLa): inconclusive: 28.2 µM [cytotoxic, partial curve, poor fit]

C[C@@H](c1nc(-c2ccc(C#N)cc2)cs1)[C@](O)(Cn1cncn1)c1cc(F)ccc1F
Potency [1]: inconclusive: 11.6 µM [inhibitor, partial curve, poor fit]
Potency [2]: inactive
Potency [3]: inconclusive: 19 µM [inhibitor, partial curve]
Potency [5]: active: 11.5 µM
Potency (HEK293): inconclusive: 4.61 µM [inhibitor, full curve, poor fit]
Potency (KB-3-1): inconclusive: 20.6 µM [inhibitor, single point]
Potency (NIH3T3): inconclusive: 18.4 µM [inhibitor, single point]
Potency (OV90): inactive
Potency (SKOV3): inconclusive: 3.98 µM [cytotoxic, partial curve, poor fit]

CC1CCC2C(C)(C)C(O)CCC2(C)C12Cc1c(O)cc3c(c1O2)CN(C(CCCN=C(N)N)C(=O)O)C3=O (centres undefined)
Potency [1]: inconclusive: 8.93 µM [inhibitor, single point]
Potency [4]: inconclusive: 11.2 µM [inhibitor, single point]
Potency [5]: active: 8.93 µM
Potency (HEK293): inconclusive: 12.6 µM [inhibitor, single point]
Potency (KB-3-1): inconclusive: 15.9 µM [inhibitor, single point]
Potency (NIH3T3): inconclusive: 14.2 µM [inhibitor, single point]
Potency (CAOV3): inconclusive: 11.2 µM [cytotoxic, single point]
Potency (Es-2): inactive
Potency (Hek293T): inconclusive: 10 µM [cytotoxic, single point]
Potency (PA-1): inconclusive: 10 µM [cytotoxic, single point]
Potency (SKOV3): inactive
Potency (Tov112D): inconclusive: 12.6 µM [cytotoxic, single point]

C[C@H]1CO[C@@H]2Cn3cc(C(=O)NCc4ccc(F)cc4F)c(=O)c(O)c3C(=O)N12
Potency [3]: inactive
Potency [4]: inconclusive: 8.17 µM [inhibitor, partial curve, poor fit]
Potency [5]: inconclusive: 10.3 µM [inhibitor, partial curve]
Potency (HEK293): inconclusive: 29.1 µM [inhibitor, single point]
max response (KB-3-1): inactive: -18.7%
max response (NIH3T3): inactive: 2.62%
Potency (JEG-3): inconclusive: 22.4 µM [rising, single point]
Potency (Tov-21-G): inconclusive: 7.94 µM [rising, partial curve]

CC1CCN(C(c2ccc(F)cc2)c2ccc(C(C)C(=O)O)cc2-c2ccc(C(F)(F)F)cc2)CC1 (centres undefined)
Potency [1]: inconclusive: 20.6 µM [inhibitor, single point]
Potency [2]: active: 1.58 µM
Potency [3]: inconclusive: 23.9 µM [inhibitor, single point]
Potency [4]: active: 14.5 µM
Potency (HEK293): inconclusive: 29.1 µM [inhibitor, single point]
Potency (KB-3-1): inconclusive: 25.9 µM [inhibitor, single point]
Potency (NIH3T3): inconclusive: 20.6 µM [inhibitor, single point]
Potency (CAOV3): inactive
Potency (HeLa): inconclusive: 39.8 µM [cytotoxic, single point]
Potency (Hek293T): inconclusive: 39.8 µM [cytotoxic, single point]
Potency (OV90): inactive

COc1cc(-c2cc(-c3ccc(N4CCNCC4)cc3)cnc2C)cc(OC)c1OC
Potency [1]: inconclusive: 16.4 µM [inhibitor, single point]
Potency [4]: active: 9.34 µM
Potency (HEK293): inconclusive: 29.1 µM [inhibitor, single point]
Potency (KB-3-1): inconclusive: 23.1 µM [inhibitor, partial curve, poor fit]
Potency (NIH3T3): inconclusive: 2.59 µM [inhibitor, full curve]
Potency (CAOV3): inconclusive: 25.1 µM [rising, single point]
Potency (HeLa): inactive
Potency (OV90): inconclusive: 5.01 µM [cytotoxic, single point]
Potency (PA-1): inactive
Potency (SKOV3): inconclusive: 0.141 µM [rising, full curve, poor fit]

C=CC(=O)Nc1cccc(Nc2nc(Nc3ccc(Oc4ccnc(C(=O)NC)c4)cc3)ncc2F)c1
Potency [1]: inconclusive: 23.1 µM [inhibitor, single point]
Potency [3]: inconclusive: 7.56 µM [inhibitor, partial curve]
Potency (HEK293): inconclusive: 20.6 µM [inhibitor, single point]
Potency (KB-3-1): inconclusive: 23.1 µM [inhibitor, single point]
Potency (NIH3T3): inconclusive: 29.1 µM [inhibitor, single point]
Potency (C33A): inactive
Potency (CAOV3): inconclusive: 31.6 µM [cytotoxic, single point]
Potency (Es-2): inconclusive: 22.4 µM [cytotoxic, partial curve, poor fit]
Potency (HeLa): inconclusive: 35.5 µM [cytotoxic, single point]
Potency (Hek293T): inconclusive: 39.8 µM [cytotoxic, single point]
Potency (PA-1): inconclusive: 39.8 µM [cytotoxic, single point]
Potency (SKOV3): inconclusive: 28.2 µM [cytotoxic, single point]
Potency (Tov-21-G): inconclusive: 31.6 µM [cytotoxic, single point]
Potency (Tov112D): inconclusive: 39.8 µM [cytotoxic, single point]
